# In article PMC4336329 (PLoS ONE, 2015):
# Among all 310,000 compounds or so, about 14,000 (4.5%) showed an effect of 50% or more. Effects have a minus sign here. This is one part of the list.
# Molecular target: human ether-à-go-go-related gene (hERG) potassium channel (human, UniProt Q12809)
# Assay: primary screen, population patch clamp on CHO cells stably expressing hERG
# 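Also: peak tail current of the secondary pulse compared with the same well before compound.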
# Chain of human ether-à-go-go-related gene (hERG) potassium channel (Q12809 whole entry, looked up): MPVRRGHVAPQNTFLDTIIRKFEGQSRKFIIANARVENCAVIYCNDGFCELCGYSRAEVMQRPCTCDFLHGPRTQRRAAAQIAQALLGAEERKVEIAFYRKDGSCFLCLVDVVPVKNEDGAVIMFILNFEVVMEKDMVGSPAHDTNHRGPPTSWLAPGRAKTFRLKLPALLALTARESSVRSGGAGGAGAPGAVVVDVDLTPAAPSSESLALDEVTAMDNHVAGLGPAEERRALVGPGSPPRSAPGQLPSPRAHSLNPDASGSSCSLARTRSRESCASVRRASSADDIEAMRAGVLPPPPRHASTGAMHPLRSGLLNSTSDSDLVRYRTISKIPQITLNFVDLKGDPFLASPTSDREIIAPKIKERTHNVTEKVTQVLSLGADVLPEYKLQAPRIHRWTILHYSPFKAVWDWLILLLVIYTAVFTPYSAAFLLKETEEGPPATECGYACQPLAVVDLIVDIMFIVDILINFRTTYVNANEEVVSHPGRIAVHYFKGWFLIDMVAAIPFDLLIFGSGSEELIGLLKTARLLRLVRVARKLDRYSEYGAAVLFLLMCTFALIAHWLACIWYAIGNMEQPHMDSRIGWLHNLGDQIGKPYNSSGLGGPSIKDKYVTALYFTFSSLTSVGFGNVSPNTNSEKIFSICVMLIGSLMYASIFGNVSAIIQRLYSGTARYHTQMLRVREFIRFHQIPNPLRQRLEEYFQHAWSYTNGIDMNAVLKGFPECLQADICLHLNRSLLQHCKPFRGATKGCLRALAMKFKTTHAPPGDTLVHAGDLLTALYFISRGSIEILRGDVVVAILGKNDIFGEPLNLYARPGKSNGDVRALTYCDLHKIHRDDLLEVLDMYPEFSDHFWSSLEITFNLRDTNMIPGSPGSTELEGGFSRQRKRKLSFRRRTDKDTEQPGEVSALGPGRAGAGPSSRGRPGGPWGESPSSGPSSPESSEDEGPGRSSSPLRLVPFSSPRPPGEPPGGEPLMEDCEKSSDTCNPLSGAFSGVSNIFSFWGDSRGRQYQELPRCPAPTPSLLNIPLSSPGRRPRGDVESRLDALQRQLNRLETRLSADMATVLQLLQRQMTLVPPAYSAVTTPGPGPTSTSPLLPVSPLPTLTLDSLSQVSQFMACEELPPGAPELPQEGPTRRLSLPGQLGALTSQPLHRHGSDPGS
row,Compound,"hERG current change (%, negative = inhibition) at 10uM"
1,O=C(COC(=O)c1cccc(C(F)(F)F)c1)NCc1ccc(Cl)cc1,0.934%
2,Nc1c(Cl)cc(Cl)cc1C(=O)OCC(=O)N1CCOCC1,8.63%
3,CC(=O)N1CCOc2ccc(S(=O)(=O)NC(C)c3ccccc3)cc21 (centres unmarked),8.58%
4,COc1cccc(OC)c1C(=O)Nc1ccccc1N1CCCC1,-74.6%
5,COCCNc1nc2c(c(=O)n(Cc3cccc(Br)c3)c(=O)n2C)n1C,-4.02%
6,CCc1ccc2nc3nc(C)cc(C)c3c(N)c2c1,1.12%
7,Cc1cccc(NC(=S)NNC(=O)CCn2nc(C)c([N+](=O)[O-])c2C)c1,9.61%
8,Cc1cc(NC(=O)C2CC(=O)N(c3ccccc3Cl)C2)no1 (centres unmarked),14.6%
9,O=C1Cc2ccccc2C(=O)N1OCc1ccc(Cl)cc1,10.5%
10,Cc1cc(/C=C2\C(=O)NC(=O)N(Cc3ccccc3)C2=O)c(C)n1-c1ccc(Cl)c(C(=O)O)c1,1.67%
11,CCOC(=O)c1cc2ccccc2n1CC(=O)c1ccccc1,14.3%
12,CCN(CC(=O)Nc1ccc(C(=O)OC)cc1)C1CCCCC1,-1.85%
13,CCCN(CC(=O)Nc1ccccc1OC)C(=O)c1ccc2ncsc2c1,-26.4%
14,Cc1ccc(S(=O)(=O)N2CCN(S(=O)(=O)N3CCC(C)CC3)CC2)c(C)c1,5.91%
15,CCOC(=O)C1=C(CNCCc2ccc(Cl)cc2)NC(=O)NC1c1cccc([N+](=O)[O-])c1 (centres unmarked),-29%
16,O=C(CSc1nc2[nH]c(=O)cc(O)c2s1)Nc1nccs1,2.57%
17,CC1CCCC(C)N1C(=O)CN1C(=O)C(C)(C)Oc2ccc(C(=O)NC3CCCCC3)cc21 (centres unmarked),-0.937%
18,CNC(=O)Nc1ccc(S(N)(=O)=O)cc1,8.48%
19,COCc1c(C(=O)N/N=C/c2cccc3ccccc23)nnn1-c1nonc1N,9.09%
20,Cn1c(SCCS(=O)(=O)c2ccc(Cl)cc2)nnc1-c1ccccc1,-19.3%
21,COCCN(C(=O)COC(=O)c1c(-c2ccccc2)noc1C)c1c(N)n(Cc2ccccc2)c(=O)[nH]c1=O,-37.5%
22,Cc1ccc(S(=O)(=O)N(C)c2ccc(C(=O)Nc3cccc(C)n3)cc2)cc1,-8.7%

row,Compound,"hERG current change (%, negative = inhibition) at 10uM"
1,CCC1(C)Cc2nc3[nH]c(=S)n(-c4ccccc4C)c(=O)c3cc2CO1 (centres unmarked),4.44%
2,CCC1CCCCN1C(=S)Nc1ccc(S(=O)(=O)Nc2ncccn2)cc1 (centres unmarked),14.4%
3,O=C(OCC(=O)c1ccc[nH]1)c1ccc(S(=O)(=O)N2CCCCCC2)cc1,1.31%
4,O=S(=O)(c1ccc(SCCOc2ccc(Br)cc2)nc1)N1CCCC1,1.58%
5,Cc1noc(/C=C/N(C)C)c1S(=O)(=O)N1CCCC(C(=O)N2CCc3ccccc32)C1 (centres unmarked),13%
6,O=C(CN1CCN(C(=O)N2CCOCC2)CC1)Nc1cc(Cl)ccc1Cl,-59.9%
7,COCc1cc(/C=N\NC(=O)Cc2ccc(Cl)cc2)ccc1OC,-3.36%
8,COc1ccc(C(CCNCc2ccc(N(C)C)cc2)c2ccccc2)cc1 (centres unmarked),-72.2%
9,CCN(CC(=O)Nc1c(F)cccc1F)C(=O)c1ccc(=O)n(Cc2ccccc2)n1,17%
10,O=C(Cn1cnc2ccccc21)N/N=C/c1ccccc1[N+](=O)[O-],-5.59%
11,CCOC(=O)N1CCN(C(=O)CCn2c(=S)[nH]c3ccccc3c2=O)CC1,10.4%
12,CC(=N/O)/C(=N\O)c1ccc(C)o1,3.23%
13,Cc1cc(C(=O)N2CCN(c3ccccc3)CC2)no1,-0.965%
14,Cc1cc2n(n1)C(c1sccc1C)Nc1c(C)cccc1-2 (centres unmarked),2.2%
15,Cc1ccc(O)c(C=Nc2ccc3[nH]ncc3c2)c1,-4.45%
16,O=C(NCCN1CCN(Cc2ccccc2)CC1)c1ccc(CS(=O)(=O)c2ccc(Br)cc2)o1,-79.8%
17,O=C(C1CCC(=O)N1Cc1ccccc1Cl)N1CCN(c2cccc(Cl)c2)CC1 (centres unmarked),-21.6%
18,Cc1cc(C)n(-c2nc(-c3ccccc3)cs2)n1,0.969%
19,CCOC(=O)C1CCN(CC(=O)NC(=O)NC2CCCCC2)CC1,7.36%
20,CCCc1nc(-c2ccccc2O)n(-c2ccccc2)n1,9.05%
21,O=C1CN(C(=O)NCC(=O)N[C@@H](C(=O)O)c2ccccc2)c2ccccc2N1,11.6%
22,Cc1ccc(OCC(=O)Nc2ccc(S(=O)(=O)N3CCOCC3)cc2)c([N+](=O)[O-])n1,5.15%
